Experimental data as given in patent publication US20110212853A1, “NOVEL DIAGNOSTIC METHOD” (PROBIODRUG AG, priority 2010, published 2011).

Columns and labels:
mouse MCP-1 N1pE = molecular target: T1, mouse MCP-1 N1pE (Mus musculus, UniProt P10148); assay: Indirect Sandwich ELISA for detection of mMCP-1 N1pE; assay type: binding
T1 construct: host or cells: E. coli
From the text: Examples 5-10 describe the quantitative detection of recombinant and native human MCP-1/MCP-1 N1pE. In order to analyse mMCP-1 and mMCP-1 N1pE level in mouse samples, assays needed to developed for the quantification of mouse MCP-1/MCP-1 N1pE. Since the MCP-1 N1pE antibody clone 348-2C9 cross reacts with mouse MCP-1 N1pE, this antibody was used for the establishment of an indirect Sandwich ELISA for the detection of mMCP1 N1pE.
To capture mouse MCP-1, commercially available polyclonal antiserum rabbit anti mJE (Peprotech, Hamburg, Germany) as capture antibody which specifically binds mouse MCP-1 was diluted in PBS to 500 ng/ml and immobilized in polystyrene 96-well microtitre plates over 4-7 nights at 4° C. Thereafter, blocking occurred for 2 hours at room temperature with ELISA Blocker (Thermo Fisher Scientific, Waltham, USA). For preparation of the standard curve recombinant mMCP-1 was incubated with mouse Glutaminyl Cyclase (QC) in order to obtain mMCP-1 N1pE. The recombinant mMCP-1 N1pE standard peptide was serially diluted with ELISA Blocker from 1950 pg/ml down to 19.5 pg/ml and added to the wells in duplicate. Two wells filled with ELISA Blocker represent the standard curve value 0 pg/ml. […] Absorption at 450/540 nm was determined by a Tecan Sunrise plate reader.

hMCP-1(1-38) = hMCP-1(1-38) (Homo sapiens, UniProt P13500); assay: Isothermal titration calorimetry of anti-MCP-1 N1pE antibodies; assay type: binding; conditions: ITC, 20° C., pH 7.4
Sequence of hMCP-1(1-38) (P13500 24-61 limits assumed): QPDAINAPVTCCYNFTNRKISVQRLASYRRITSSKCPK
Experimental: The binding affinities of anti-MCP-1 N1pE antibodies (MCP-1 N1pE antibody 2C9 and biotinylated MCP-1 N1pE antibody 348/2C9) to the antigen hMCP-1(1-38) were determined usingVP-ITC microcalorimeter (MicroCal). Both antibody clones and the MCP-1 (1-38) peptide were dialyzed against 2 liter 150 mM NaCl, 25 mM Na2HPO4, 25 mM KH2PO4, 2 mM EDTA pH 7.4 overnight at 4° C. to ensure the same buffer conditions and avoid background heat by protonation events. Afterwards, the concentrations of the antibodies and the peptide and the respective extinction coefficient were calculated from absorbance at 280 nm. For the titration experiments, MCP-1 N1pE antibody 2C9 and MCP-1(1-38) were used at concentrations of 1.87 μM and 29.19 μM, respectively. The binding heat was recorded at 20° C. by titration of 29 injections of 10 μl of MCP-1(1-38) into the anti-MCP-1 N1pE antibody solution. The heat development of the dilution of the MCP-1(1-38) peptide was determined by titration into the dialysis buffer using the conditions and instrument setup. Afterwards, the data were analyzed by means of the MicroCal ORIGIN software. The calculated binding heat was corrected by the heat of the peptide dilution. The resulting curve was fitted by the “One Set of Sites” binding model and the stoichiometry, dissociation constant, reaction enthalpy, reaction entropy, were calculated.

cross reaction with mouse MCP-1 N1pE (mouse MCP-1 N1pE): cross reacts
Reaction enthalpy (hMCP-1(1-38)): -7.679 kcal/mol
Reaction entropy (hMCP-1(1-38)): 5.01 cal/mol·K
Stoichiometry (hMCP-1(1-38)): 1.83
Kd (hMCP-1(1-38); read-out: Dissociation constant): 151 nM
B1: MCP-1 N1pE antibody 348/2C9: monoclonal antibody specific for N-terminal pyroglutamate modified MCP-1, hybridoma 348/2C9 (Deposit No. DSM ACC 2906) (antibody, V domains shown)
VH: EVQLQQSGPELVKPGASVKMSCKASGYTFTDYYMDWVKQSHGESFECIGRVNPYNGGTSYNQKFKGKATLTVDKSSSTAYMELNSLTSEDSAVYYCARLGSSYRWGQGTTLTVSSAKTTPPSVYPL
VL: DVVMTQTPLSLSVTIGQPASISCKSSQSLLDSAGKTYLSWLLQRPGQSPKRLIYLVSKLDSGVPDRFTGSGSGTDFTLKISRVEAEDLGVYYCWQGTHFPWTFGGGTKLEIKRADAAPTVSIFPPSS
